Reference: the supplement of paper PMC3334620
The full ranking holds about 33,000 sequences; the median of “E-score (-0.5 to 0.5)” is about -0.021, and the highest 2% start at about 0.32. The list shows a part of the results.

molecular target: T1, Zap1 (UniProt P47043); assay: PBM E-score (8-mer binding enrichment) (E-score (-0.5 to 0.5)); higher = stronger / more preferred TF binding; most listed sequences are background and not binding sites; conditions: protein concentration: 200 nM; construct: GST-full length
T1 sequence: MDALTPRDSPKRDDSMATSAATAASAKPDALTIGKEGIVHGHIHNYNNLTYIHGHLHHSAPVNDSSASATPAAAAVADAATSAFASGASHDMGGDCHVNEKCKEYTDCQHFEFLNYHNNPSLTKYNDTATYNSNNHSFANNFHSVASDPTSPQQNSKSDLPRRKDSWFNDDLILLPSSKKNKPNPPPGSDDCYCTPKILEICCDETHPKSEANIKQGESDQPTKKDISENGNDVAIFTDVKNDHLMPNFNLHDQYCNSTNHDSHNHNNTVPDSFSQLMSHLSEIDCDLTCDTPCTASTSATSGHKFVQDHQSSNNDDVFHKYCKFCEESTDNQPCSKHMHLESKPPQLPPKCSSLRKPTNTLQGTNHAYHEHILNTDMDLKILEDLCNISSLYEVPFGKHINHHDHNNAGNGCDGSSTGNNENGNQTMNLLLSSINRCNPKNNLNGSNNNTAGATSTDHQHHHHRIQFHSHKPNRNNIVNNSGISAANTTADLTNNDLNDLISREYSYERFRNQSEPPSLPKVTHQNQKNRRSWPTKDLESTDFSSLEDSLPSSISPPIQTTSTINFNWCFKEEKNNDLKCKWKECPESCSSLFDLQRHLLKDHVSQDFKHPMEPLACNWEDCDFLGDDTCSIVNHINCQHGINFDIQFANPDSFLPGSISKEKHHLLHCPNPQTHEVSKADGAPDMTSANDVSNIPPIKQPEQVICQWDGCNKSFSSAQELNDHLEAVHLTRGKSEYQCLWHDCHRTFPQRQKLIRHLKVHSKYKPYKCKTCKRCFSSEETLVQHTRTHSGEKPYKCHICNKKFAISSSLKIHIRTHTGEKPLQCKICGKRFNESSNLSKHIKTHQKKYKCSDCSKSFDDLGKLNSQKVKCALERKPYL
Outline: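 Each ungapped eight-base word and its reverse complement, pooled, received an E-score from the Universal PBM Analysis Suite. Underlying scans, normalised with masliner, recorded fluorescent anti-GST bound to GST-tagged yeast transcription factors. These were applied at about 100-200 nM to universal all-10-mer Agilent arrays double-stranded by primer extension.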

Sequence	PBM E-score
ACCGAGTG	-0.0921
TCATAAGA	0.00189
TACATCCA	0.133
CGCGGTAC	0.305
AGGCTGCG	-0.0962
CCTGGGCC	0.0947
TAATTTCA	0.3
CCAGTAAA	0.129
TCATCCCA	0.073
AGTATTCA	0.154
GACTCTAA	-0.0305
GTGGAAGA	-0.0706
CGACCGGA	-0.192
CCTTTAAG	0.237
ACCGGCGG	0.0545
TATTGAGA	0.159
CGGCCGAC	0.0338
ACAGAGAA	-0.0562
CTAGGTGC	-0.243
GTAAGTCA	-0.113
ACTGGCGG	-0.0316
CGAAAAAG	0.18
ACGCCCGA	-0.136
ACTTCCCA	0.00014
CCTGTAAG	0.0782

Sequence	PBM E-score
AAAATTTA	0.115
GCATCAAC	-0.082
AAAGAAGG	0.0804
AGCATTTG	-0.00877
ATAATGTC	-0.102
GCGAAAGC	-0.142
AGTACAGG	0.0139
CGGCTGGC	-0.196
CCGTAACA	0.0988
ATGCACAT	-0.0287
ACTTCCAA	0.0299
ATGTAAGA	0.0542
ATTTGTCA	-0.0752
ACACGACG	-0.132
AATCAAGT	0.0375
ACTAGAAT	0.0418
AACTATGT	-0.277
ACCAGGGA	-0.00163
CCGGGGAG	0.0491
ACCACCTG	0.167
GCAGTCAC	-0.0144
GTGACTCA	-0.103
ACGCGCAA	0.154
CAAACCGC	0.0621
GATAAAGA	-0.19

Sequence	PBM E-score
ACAGATTG	-0.157
CGATGCCA	-0.148
CACTCATA	0.00233
AATTGTTG	-0.00694
AAGGGCTC	-0.328
AATTTGGA	0.0369
CAAAGTAA	-0.00107
ACTTCAAA	-0.13
ACCCTTCG	0.373
ACCAATGC	0.0242
CCATCCGG	-0.0653
CGATATAA	0.0368
CCGGAAAA	0.214
AGAATTGG	-0.137
GTAGGCAC	-0.108
CTACACAG	-0.119
CAAGTCGG	-0.11
AACGATTC	-0.191
ACTTTCGG	-0.0108
ACGAACTA	0.099
CTCTTCAA	-0.24
GATTTTCC	0.00079
AAACTGAC	0.0458
TCGGTCCA	0.0624
ATGGCGAC	-0.107

Sequence	PBM E-score
GTACTGTA	0.0704
ACTAATAG	0.117
AAGCTCCG	-0.0961
AGCGAAGA	-0.0845
AAACACAG	0.0983
TCGTCAAA	0.0196
CCCGTTAC	0.141
CTACGGTA	0.0997
CGGGGTGC	-0.0417
CCTGCTTA	0.0283
GAGATGTA	-0.00504
CTGCTGTA	-0.0799
GAAGAAGA	-0.0985
AAACTGCT	-0.173
ATCCCCTC	-0.167
CGTACGAA	0.0481
AACTGCCT	-0.187
CTTGTTAA	0.102
AAACTGTC	-0.156
ACTAGTCA	-0.235
CTCGCATA	-0.0255
AAGGGTTG	0.441
AAATATCA	0.0502
GTGCCAAA	-0.173
CCCGATAC	0.209

Sequence	PBM E-score
CTACGAAC	0.0136
CCGGCCCA	-0.106
AAGTTACC	0.265
ATACAGAT	0.102
TCTGAACA	0.0463
ATGGTCTA	-0.0631
CCAATAGG	0.166
CTATTAGA	-0.0606
GAAACGTC	-0.299
AGAGTGAT	-0.0301
CTTTAACA	0.123
GTTAATTA	0.212
CTACTTTC	0.043
ATGTTCTC	-0.0467
ACGGTTCT	0.0709
ATGTCAGC	-0.201
AGCCGGGA	-0.0342
CGCGGCGA	0.0759
AACGGACG	-0.214
ATACCCTC	0.323
CCGCATTA	-0.0192
TCCACTCA	0.0775
CTTTGTGC	-0.0318
ATCGAGTA	-0.0105
AGTTATGA	0.169

Sequence	PBM E-score
GTTGAGGA	0.042
CGGTCGAC	-0.00696
GTGTGCGA	-0.192
AAAATAAA	0.239
ATTCAAAA	0.173
CGGTTGTA	0.153
TGATGCCA	-0.288
CGGCGAAC	-0.274
GCCCTGAA	0.0835
TGAACTCA	-0.0396
CCTAAAGC	-0.135
AATCGCTA	-0.00711
ACCCAACG	0.182
ATCCATAC	-0.0583
GGGAGTAC	-0.159
GGGTAGAA	0.163
ATGAAATA	0.0599
CTTCAACC	0.134
GCAGGCCC	-0.249
CCCATTCC	-0.136
ATATGGAC	0.148
AAACTCCC	-0.136
AAGATTAG	-0.0895
GATGTCCC	-0.095
ATTTTCGA	0.123

Sequence	PBM E-score
GTGGTCTA	0.0864
GCCTTAGC	-0.182
AACTAGAA	0.164
GTCAGGAC	0.00801
CCTAACCC	0.264
ACGATGCT	-0.134
AGCGCCCG	-0.405
ACACCGTC	-0.106
CACGGCCC	0.034
CTTGGGAA	-0.0342
CTAGTAGA	-0.0109
AATAGAAC	0.151
CAGTTGAC	-0.0373
CCGCGCCA	0.0566
GCGTTGAA	-0.0131
GCCCGGTA	-0.121
GGTTTCAA	0.198
GTCGATCA	-0.05
ACTTTCTC	-0.174
CGTAAATA	0.0482
ATTTTCCG	0.168
AATCTTGA	-0.0452
